PubChem BioAssay AID1963576 (National Center for Advancing Translational Sciences (NCATS), 2024)
Hit rate of the full screen: of about 46,000 compounds, about 60 (0.1%) were called active. Roughly 3% stayed inconclusive and do not appear here. The call rests on the fitted dose curve; in most records, active means well fitted inhibition curve with a large enough effect; inconclusive means small, poorly fitted or top-dose-only effect; inactive means no such curve, though single readings can be large or run the other way. The list shows a part of the results.

Assay: Primary qHTS assay for Inhibitors of ovarian cancer metastasis using an organotypic tumor microenvironment (TME) model. Further: nearly all actives have a fitted effect of over 65% in size.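 On activity change, negative = inhibition: plate controls were DMSO wells for no effect and tomatine positive control wells for full effect.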
Conditions: SKOV3ip1-GFP adhesion/invasion on 3D omental model, fluorescence; series mostly up to 45.8 µM; activity change, negative = inhibition: at the top concentration
Procedure, shortened: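 Adhesion/invasion was scored as fixed GFP-labeled SKOV3ip1 cell counts (488/509 nm), normalized to DMSO and tomatine controls. Cancer cells in serum-free medium, with four compound doses (0.36-46 umol/L), sat 2 hr at RT then 16 hr at 37 C on a 48 hr fibroblast/mesothelial/ECM culture.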

outcome, inactive:
O=C1c2ccccc2-c2onc3c(N4CCN(C5CCCCC5)CC4)cc(NCCO)c1c23
CCCN(CCC)C(=O)c1cc2c(=O)n3cccc(C)c3nc2s1
CC(C)CC(=O)Nc1ccc2nc(SCC(=O)N3CCc4ccccc43)sc2c1
O=C(CSc1nnc(-c2ccc3c(c2)OCO3)o1)Oc1ccccc1
CCn1ccc2cc(S(=O)(=O)N3CCCN(C(=O)Nc4ccccc4F)CC3)ccc21
CCOc1cc(C2c3c(-c4cc(C)ccc4O)n[nH]c3C(=O)N2CCCOC(C)C)ccc1O (stereo unspecified)
CCOc1ccc(-n2c(SCC(=O)Nc3cc(C)ccc3C)nc3c([nH]c4ccccc43)c2=O)cc1
COC(=O)c1cc(Nc2nc3ccccc3nc2NS(=O)(=O)c2ccc(C)cc2)ccc1Cl
Cc1ccc2oc3c(c(=O)c2c1)C(c1ccc(O)cc1)N(CCCN(C)C)C3=O (stereo unspecified)
Cc1ccc(-n2c(=O)c3cccnc3n2CC(=O)NCc2ccc(Cl)cc2)cc1
O=C(CCS(=O)(=O)c1cc2c(cc1Cl)NC(=O)CO2)NCc1ccc(Cl)cc1
CCn1c2ccccc2c2cc(CN3CCN(Cc4ccc(Br)cc4)CC3)ccc21
COc1ccc2[nH]cc(CCN=C(NC(=O)c3ccccc3F)Nc3nc(C)cc(C)n3)c2c1
Cc1ccccc1NC(=O)Cn1c(=O)n(CCCC(=O)NCc2ccc3c(c2)OCO3)c(=O)c2ccccc21
CCCOC(=O)c1cccc(Nc2nc(CCC)cc(=O)[nH]2)c1
Cc1ccc(CN2C(=O)C(O)(c3c(C)[nH]c4ccccc34)c3ccccc32)cc1 (stereo unspecified)
Cc1cc2nc(-c3ccc(OCc4ccccc4C)cc3)cc(C(F)(F)F)n2n1
COc1ccc([N+](=O)[O-])cc1NC(c1nnc(-c2ccccc2)o1)c1ccccc1F (stereo unspecified)

Activity change, negative = inhibition, inactive:
CC(=O)c1cccc(NC(=O)C2CCN(c3ncnc4c3nc3n4CCCCC3)CC2)c1 -12.4%
CC1=C(c2ccc(C)c(C)c2)S(=O)(=O)N=C1N1CCC(C(=O)NC(C)c2ccccc2)CC1 (stereo unspecified) -20.3%
CCc1ccc2oc(C(=O)N(Cc3ccc(N(C)C)cc3)Cc3ccco3)c(C)c2c1 -3.86%
CC(CCc1ccccc1)NC(=O)Cn1c(=O)nc(-c2ccccc2)c2cc(Cl)ccc21 (stereo unspecified) -12.9%
CCOc1ccccc1CNC(=O)c1sc2ncccc2c1-n1cccc1 3.25%
CCOC(=O)C1CCCN(S(=O)(=O)c2cc(-c3cc(C)no3)ccc2OC)C1 (stereo unspecified) -0.925%
Cc1ccc(CN(C(=O)c2ccc(C(C)(C)C)cc2)c2ccccn2)o1 0.523%
COc1ccccc1NC(=O)CSc1ncc2c(n1)-c1ccccc1N(Cc1ccccc1C)S2(=O)=O 3.62%
COc1cccc(Cn2c(SCC(=O)N3CCN(c4ccc(F)cc4)CC3)nc3ccccc32)c1 -25.8%
O=C(COC(=O)c1cc(-c2cccs2)nc2ccccc12)c1ccc(F)cc1 4.46%
O=C(Nc1cc(-c2ccccc2)sc1C(=O)O)c1cccc(F)c1 -22.8%
COc1ccc(CNC(=O)c2sc3nc4n(c(=O)c3c2C)CCCC4)cc1 -4.83%
COc1cccc(Cc2nc3ccccc3nc2SCC(=O)Nc2cccc(C)c2)c1 -12.5%
Cc1ccc(Cn2cc(S(=O)(=O)c3cccc(C)c3)c(=O)c3cc(F)c(N4CCOCC4)cc32)cc1 3.47%
CCC(C)n1c(=O)c2sccc2n2c(CCCC(=O)N3CCN(c4ccccc4)CC3)nnc12 (stereo unspecified) -1.15%
O=C(Cn1c(=O)n(Cc2nc(-c3ccccc3)no2)c(=O)c2cc3c(cc21)OCO3)Nc1ccccc1 13.4%
COc1ccc2c(c1)CCc1c(C(=O)Nc3cc(OC)c(Cl)cc3OC)noc1-2 5.97%
CC(C)c1ccc(NC(=O)CSC2=Nc3ccccc3C3=NC(CCC(=O)NC4CCCCC4)C(=O)N23)cc1 (stereo unspecified) 1.68%
COc1ccc2cc([C@H](C)C(=O)O)ccc2c1 -24.2%
O=C(Cc1ccccc1)Nc1sc2c(c1C(=O)Nc1ccccc1Cl)CCCCC2 5.89%
Nc1c(C(=O)Nc2ccc(F)cc2)sc2nc(-c3cccs3)cc(C(F)(F)F)c12 -5.01%
COC(=O)c1ccc([C@@H]2Nc3c(OC)ccc(C)c3[C@@H]3C=CC[C@@H]32)cc1 0.615%
Cc1cc(F)ccc1NC(=O)C(c1ccccc1)N1Cc2ccccc2C1=O (stereo unspecified) 7.25%
COc1ccc(C(=O)Nc2cccc(C(=O)OCc3cc(=O)n4nc(C5CC5)sc4n3)c2)cc1 6.63%
Cc1cccc(Nc2ncnc3onc(-c4ccc(Cl)cc4)c23)c1C 0.597%
O=[N+]([O-])c1ccc(Nc2ccccc2-c2ccccc2)c2nonc12 -6.43%
CC1N=C2c3ccccc3N=C(SCC(=O)NCCc3ccc(Cl)cc3)N2C1=O (stereo unspecified) -3.54%
CCOc1ccc(CC(=O)Nc2cccc(-c3nc4cccnc4s3)c2C)cc1 -2.76%
O=c1cc(-c2ccccc2)c2ccc3c(c2o1)CN(Cc1cccc(Cl)c1)CO3 -7.62%
COc1cccc(NCc2cccn2-c2nnc(N3CCC(C)CC3)s2)c1 -15.7%
CCC(C)NC(=O)CN1C(=O)c2cccnc2Sc2ccccc21 (stereo unspecified) -39.6%
C=C(C)CSc1nc2sc3c(c2c(=O)n1Cc1ccccc1)CC(C)(CC)OC3 (stereo unspecified) -3.96%
Cc1c(C(=O)Nc2ccccc2Br)oc2ccc(S(=O)(=O)N3CCCCCC3)cc12 -0.475%
COc1ccc(Cl)cc1NC(=O)c1c(NCc2ccc(C)o2)sc2c1CCC(C)C2 (stereo unspecified) 0.976%
Cc1ccc(-c2cn3cccnc3n2)cc1NC(=O)C(C)(C)Oc1ccc(Cl)cc1 -1.19%
COCCNC(=O)CCCn1c(SCC(=O)Nc2ccc(F)cc2)nc2c(sc3ccccc32)c1=O -12.1%
COc1ccc(C(=O)n2nc(N)c3cc4ccc(C)cc4nc32)cc1OC -1.34%
CCOC(=O)Cn1c(=N)n(Cc2ccc(C(C)(C)C)cc2)c2ccccc21 15.5%
COc1ccc(NC(=O)C2CCC(CNS(=O)(=O)c3cccc4nsnc34)CC2)cc1OC (stereo unspecified) -1.73%
Cc1cc(C)cc(-n2ccnc2SCC(=O)Nc2cccc3ccccc23)c1 9.44%
COc1cc(C2CC(=O)N(Cc3cccc(F)c3)c3ccccc3S2)cc(OC)c1OC (stereo unspecified) -0.582%
CC1CCN(C(=O)c2c(NC(=O)c3ccccc3Cl)sc3c2CCC(C(C)(C)C)C3)CC1 (stereo unspecified) 3.14%
COc1ccccc1C1NC(=O)c2n[nH]c(-c3cccs3)c21 (stereo unspecified) 1.85%
